# This is one part of the list.
# How the values were obtained:
# Experiment in all cases: glycan array binding signal (z-score within array); higher = stronger binding
# Conditions in all cases: glycan notation: IUPAC condensed, linker removed
# [1] = biological target: Gal(b1-4)GlcNAc(b1-3)Gal(b1-4)GlcNAc(b1-3)[Gal(b1-4)GlcNAc(b1-3)Gal(b1-4)GlcNAc(b1-6)]GalNAc
# How it was run: (§1)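 Glycan array data came from 3228 arrays in the Consortium for Functional Glycomics database, and only arrays with an available protein sequence were kept. Glycan names were put into IUPAC-condensed notation, and columns mapping to the same glycan were averaged. The binding signal is a within-array Z-score, averaged across arrays of one protein sequence run at different concentrations or buffers and across linkers. A negative Z-score can be read as non-binding.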
# [2] = biological target: Gal(b1-4)GlcNAc(b1-3)Gal(b1-4)GlcNAc(b1-6)[Gal(b1-3)]GalNAc
# How it was run: as §1
# [3] = biological target: Gal(b1-4)GlcNAc(b1-3)Gal(b1-4)[Fuc(a1-3)]GlcNAc(b1-3)Gal(b1-4)[Fuc(a1-3)]GlcNAc
# How it was run: as §1
# [4] = biological target: Gal(b1-4)GlcNAc(b1-3)GalNAc
# How it was run: as §1
# [5] = biological target: Gal(b1-4)GlcNAc(b1-3)[Fuc(a1-3)GlcNAc(b1-6)]Gal(b1-4)Glc
# How it was run: as §1
# [6] = biological target: Gal(b1-4)GlcNAc(b1-3)[Gal(b1-4)GlcNAc(b1-6)]Gal(b1-4)GlcNAc
# How it was run: as §1
# [7] = biological target: Gal(b1-4)GlcNAc(b1-3)[GlcNAc(b1-6)]Gal(b1-4)GlcNAc
# How it was run: as §1
# [8] = biological target: Gal(b1-4)GlcNAc(b1-6)Gal(b1-4)GlcNAc
# How it was run: as §1
# [9] = biological target: Gal(b1-4)GlcNAc(b1-6)GalNAc
# How it was run: as §1
# [10] = biological target: Gal(b1-4)GlcNAc(b1-6)[Gal(b1-3)]GalNAc
# How it was run: as §1
# [11] = biological target: Gal(b1-4)GlcNAc(b1-6)[Gal(b1-4)GlcNAc(b1-3)]GalNAc
# How it was run: as §1
# Gal(b1-4)GlcNAc6P = biological target: Gal(b1-4)GlcNAc6P
# How it was run: as §1
# Gal(b1-6)Gal = biological target: Gal(b1-6)Gal
# How it was run: as §1
# Gal3S(b1-3)GalNAc = biological target: Gal3S(b1-3)GalNAc
# How it was run: as §1
# Gal3S(b1-3)GlcNAc = biological target: Gal3S(b1-3)GlcNAc
# How it was run: as §1
# [12] = biological target: Gal3S(b1-3)[Fuc(a1-4)]GlcNAc
# How it was run: as §1
# Gal3S(b1-4)Glc = biological target: Gal3S(b1-4)Glc
# How it was run: as §1
# Gal3S(b1-4)Glc6S = biological target: Gal3S(b1-4)Glc6S
# How it was run: as §1
# Gal3S(b1-4)GlcNAc = biological target: Gal3S(b1-4)GlcNAc
# How it was run: as §1
# [13] = biological target: Gal3S(b1-4)[Fuc(a1-3)]Glc6S
# How it was run: as §1
# [14] = biological target: Gal3S(b1-4)[Fuc(a1-3)]GlcNAc
# How it was run: as §1
# [15] = biological target: Gal3S(b1-4)[Fuc(a1-3)]GlcNAc6S
# How it was run: as §1
# Gal3S4S(b1-4)GlcNAc = biological target: Gal3S4S(b1-4)GlcNAc
# How it was run: as §1
# Gal3S6S(b1-4)GlcNAc = biological target: Gal3S6S(b1-4)GlcNAc
# How it was run: as §1
# Gal3S6S(b1-4)GlcNAc6S = biological target: Gal3S6S(b1-4)GlcNAc6S
# How it was run: as §1
# Gal4S(b1-4)GlcNAc = biological target: Gal4S(b1-4)GlcNAc
# How it was run: as §1
# Gal4S6S(b1-4)GlcNAc = biological target: Gal4S6S(b1-4)GlcNAc
# How it was run: as §1
# Gal6P(b1-4)GlcNAc = biological target: Gal6P(b1-4)GlcNAc
# How it was run: as §1
# Gal6S(b1-3)GlcNAc = biological target: Gal6S(b1-3)GlcNAc
# How it was run: as §1
# Gal6S(b1-3)GlcNAc6S = biological target: Gal6S(b1-3)GlcNAc6S
# How it was run: as §1
# Gal6S(b1-4)Glc = biological target: Gal6S(b1-4)Glc
# How it was run: as §1
# Gal6S(b1-4)Glc6S = biological target: Gal6S(b1-4)Glc6S
# How it was run: as §1
# Gal6S(b1-4)GlcNAc = biological target: Gal6S(b1-4)GlcNAc
# How it was run: as §1
# Gal6S(b1-4)GlcNAc6S = biological target: Gal6S(b1-4)GlcNAc6S
# How it was run: as §1
# GalNAc(a1-3)Gal = biological target: GalNAc(a1-3)Gal
# How it was run: as §1
# GalNAc(a1-3)GalNAc = biological target: GalNAc(a1-3)GalNAc
# How it was run: as §1
# [16] = biological target: GalNAc(a1-3)GalNAc(b1-3)Gal(a1-4)Gal(b1-4)Glc
# How it was run: as §1
# [17] = biological target: GalNAc(a1-3)GalNAc(b1-3)Gal(a1-4)Gal(b1-4)GlcNAc
# How it was run: as §1
# GalNAc(b1-3)Gal = biological target: GalNAc(b1-3)Gal
# How it was run: as §1
# [18] = biological target: GalNAc(b1-3)Gal(a1-4)Gal(b1-4)GlcNAc
# How it was run: as §1
# [19] = biological target: GalNAc(b1-3)Gal(a1-4)Gal(b1-4)GlcNAc(b1-3)Gal(b1-4)Glc
# How it was run: as §1
# [20] = biological target: GalNAc(b1-3)Gal(a1-6)Gal(b1-4)Glc
# How it was run: as §1
# GalNAc(b1-3)GalNAc = biological target: GalNAc(b1-3)GalNAc
# How it was run: as §1
# GalNAc(b1-3)GlcNAc = biological target: GalNAc(b1-3)GlcNAc
# How it was run: as §1
# GalNAc(b1-4)Gal(b1-4)Glc = biological target: GalNAc(b1-4)Gal(b1-4)Glc
# How it was run: as §1
binder,measurement,setting,value
Mg1lysM (Mycosphaerella graminicola) (protein) QRNPITITPQFDCGATNSQQYVARSGDTLTKIAQEIYHDVVGVCDIARANNLADPNRIDAGTPYTIPINCQTYDRNSCL,glycan array binding signal (z-score),[1],-0.075
same,glycan array binding signal (z-score),[2],-0.088
same,glycan array binding signal (z-score),[3],-0.056
same,glycan array binding signal (z-score),[4],-0.056
same,glycan array binding signal (z-score),[5],-0.094
same,glycan array binding signal (z-score),[6],-0.071
same,glycan array binding signal (z-score),[7],-0.092
same,glycan array binding signal (z-score),[8],-0.072
same,glycan array binding signal (z-score),[9],-0.053
same,glycan array binding signal (z-score),[10],-0.072
same,glycan array binding signal (z-score),[11],-0.061
same,glycan array binding signal (z-score),Gal(b1-4)GlcNAc6P,-0.091
same,glycan array binding signal (z-score),Gal(b1-6)Gal,-0.088
same,glycan array binding signal (z-score),Gal3S(b1-3)GalNAc,-0.04
same,glycan array binding signal (z-score),Gal3S(b1-3)GlcNAc,-0.07
same,glycan array binding signal (z-score),[12],-0.061
same,glycan array binding signal (z-score),Gal3S(b1-4)Glc,-0.059
same,glycan array binding signal (z-score),Gal3S(b1-4)Glc6S,-0.067
same,glycan array binding signal (z-score),Gal3S(b1-4)GlcNAc,-0.071
same,glycan array binding signal (z-score),[13],-0.033
same,glycan array binding signal (z-score),[14],-0.019
same,glycan array binding signal (z-score),[15],-0.071
same,glycan array binding signal (z-score),Gal3S4S(b1-4)GlcNAc,-0.098
same,glycan array binding signal (z-score),Gal3S6S(b1-4)GlcNAc,-0.059
same,glycan array binding signal (z-score),Gal3S6S(b1-4)GlcNAc6S,-0.056
same,glycan array binding signal (z-score),Gal4S(b1-4)GlcNAc,-0.084
same,glycan array binding signal (z-score),Gal4S6S(b1-4)GlcNAc,-0.065
same,glycan array binding signal (z-score),Gal6P(b1-4)GlcNAc,-0.068
same,glycan array binding signal (z-score),Gal6S(b1-3)GlcNAc,-0.081
same,glycan array binding signal (z-score),Gal6S(b1-3)GlcNAc6S,-0.065
same,glycan array binding signal (z-score),Gal6S(b1-4)Glc,-0.082
same,glycan array binding signal (z-score),Gal6S(b1-4)Glc6S,-0.07
same,glycan array binding signal (z-score),Gal6S(b1-4)GlcNAc,-0.051
same,glycan array binding signal (z-score),Gal6S(b1-4)GlcNAc6S,-0.069
same,glycan array binding signal (z-score),GalNAc(a1-3)Gal,-0.076
same,glycan array binding signal (z-score),GalNAc(a1-3)GalNAc,0.308
same,glycan array binding signal (z-score),[16],-0.058
same,glycan array binding signal (z-score),[17],-0.056
same,glycan array binding signal (z-score),GalNAc(b1-3)Gal,-0.082
same,glycan array binding signal (z-score),[18],-0.197
same,glycan array binding signal (z-score),[19],-0.074
same,glycan array binding signal (z-score),[20],-0.03
same,glycan array binding signal (z-score),GalNAc(b1-3)GalNAc,-0.062
same,glycan array binding signal (z-score),GalNAc(b1-3)GlcNAc,-0.076
same,glycan array binding signal (z-score),GalNAc(b1-4)Gal(b1-4)Glc,-0.057
